Assay results reported in PubChem BioAssay AID1476 (National Center for Advancing Translational Sciences (NCATS), 2009).
Among all 200,000 compounds or so, about 4,500 (2.2%) were called active. Inconclusive means that the source gave no clear call. Such entries were picked first, then a sample of the others. Calls come from the whole dose curve; as a rule, active = well fitted inhibition curve with a large enough effect; inconclusive = small, poorly fitted or top-dose-only effect, or effect the other way; inactive = flat fitted curve, though single readings scatter. A potency beside an inconclusive call is a rough fit, not a confirmed value.

Biological target: Cruzipain (Trypanosoma cruzi) (UniProt P25779)
Assay: qHTS Assay for Promiscuous and Specific Inhibitors of Cruzain (without detergent); note: nearly all actives have a fitted effect of over 40% in size;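 for max response, negative = inhibition: plate controls were enzyme without inhibitor for no effect and buffer without enzyme for full effect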
Details: purified cruzain, Z-FR-AMC fluorescence, no detergent
How it was run: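 Purified cruzain at 1.5 nM, pre-incubated 15 min with compound at room temperature in 100 mM sodium acetate pH 5.5, 5 mM DTT, 0.00005% Triton X-100. Reaction started with 2 uM Z-FR-AMC; AMC fluorescence increase over 60 s gives rate.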
Potency is the fitted concentration of half-maximal effect; tags give direction and shape of the fitted curve.

Sequence of UniProt P25779 (P25779 whole entry, looked up): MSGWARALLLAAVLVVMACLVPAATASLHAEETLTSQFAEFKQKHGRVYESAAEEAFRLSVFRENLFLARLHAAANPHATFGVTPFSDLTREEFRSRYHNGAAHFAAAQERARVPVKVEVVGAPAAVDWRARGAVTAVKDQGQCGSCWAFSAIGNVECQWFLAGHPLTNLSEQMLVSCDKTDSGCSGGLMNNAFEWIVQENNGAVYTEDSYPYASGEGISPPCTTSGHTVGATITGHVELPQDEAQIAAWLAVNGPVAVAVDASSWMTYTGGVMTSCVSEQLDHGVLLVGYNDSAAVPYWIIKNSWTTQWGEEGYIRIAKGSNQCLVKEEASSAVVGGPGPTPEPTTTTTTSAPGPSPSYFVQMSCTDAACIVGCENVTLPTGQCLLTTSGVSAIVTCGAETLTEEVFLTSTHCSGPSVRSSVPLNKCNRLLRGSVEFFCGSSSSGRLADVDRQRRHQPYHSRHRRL

| SMILES | max response, negative = inhibition | Potency |
| --- | --- | --- |
| CCOC(=O)CNC(=O)c1cc2c(=O)n3cccc(C)c3nc2n1C | inactive: 12.9% |  |
| COc1cc(OC)cc(C(=O)Oc2ccc(/C=N/Nc3nc4ccccc4s3)cc2OC)c1 |  | active: 12.6 µM |
| Cc1cc(C)c(S(=O)(=O)NCC(c2ccco2)S(=O)(=O)c2cccs2)c(C)c1 (configuration not stated) | inactive: 2.13% |  |
| Cc1cc(-c2ccc(/C=N/n3cnnc3)o2)ccc1Cl |  | inconclusive: 31.6 µM [inhibitor, single point] |
| CCCCc1cc(=O)oc2c(CN3CCCC3)c(O)ccc12 |  | inconclusive: 31.6 µM [inhibitor, single point] |
| CC(C)Oc1ccc(CNC(=O)c2ccc(NC(=O)N3CC(C)Sc4ccccc43)cc2)cc1 (configuration not stated) |  | inconclusive: 39.8 µM [inhibitor, single point] |
| COc1ccc(N2CCN(C(=O)CSc3nnc4n3C(C)(C)Cc3ccccc3-4)CC2)cc1 |  | inconclusive: 20 µM [activator, single point] |
| O=C(O)CN1CCN(CC(=O)O)CC(=O)[O][Hg][O]C(=O)C1 | inactive: 3.47% |  |
| C=CCn1c(COc2cccc(C)c2)nnc1SCC(=O)NC(=O)NCc1ccco1 |  | inconclusive: 39.8 µM [inhibitor, single point] |
| Cc1ccc2c(c1)cc(C(=O)NCc1ccccc1C)n2C | inactive: -11.5% |  |
| CC(C)(C)NC(=O)c1nc2ccccc2s1 | inactive: 2.07% |  |
| Nc1c(N=Nc2ccc(-c3ccc(N=Nc4cc(S(=O)(=O)O)c5ccccc5c4N)cc3)cc2)cc(S(=O)(=O)O)c2ccccc12 |  | inconclusive: 2.82 µM [activator, partial curve] |
| N#C/C(=C\C=C\c1ccccc1[N+](=O)[O-])c1nc(-c2ccc3c(c2)OCO3)cs1 |  | active: 20 µM |
| CCCCNc1c(C(=O)OCC)c(C)nc2c1cnn2CC |  | inconclusive: 39.8 µM [activator, single point] |
| CCCC/C=C/C(NC(=O)c1ccccc1)c1ccccc1 (configuration not stated) | inactive: -8.24% |  |
| Cc1ccccc1OCc1nc2ccccc2c(=O)n1/N=C/c1cn[nH]c1-c1ccc(Br)cc1 |  | inconclusive: 39.8 µM [inhibitor, single point] |
| CCN(Cc1ccccc1)C(=O)Cn1c(=O)n(-c2ccc(Cl)c(Cl)c2)c(=O)c2c(C)c(C(=O)N(C)C)sc21 |  | inconclusive: 3.98 µM [activator, single point] |
| COc1ccc(C(=O)c2c(C)oc3cc([N+](=O)[O-])c(O)c([N+](=O)[O-])c23)cc1 | inactive: -3.8% |  |
| COc1cc(OC)c(-c2noc(C(=O)OC(C)(C)C)c2C(=O)OC(C)(C)C)c(OC)c1 |  | inconclusive: 39.8 µM [activator, single point] |
| O=C(Nc1ccccc1)c1ccc(Nc2c([N+](=O)[O-])cc([N+](=O)[O-])c3ccccc23)cc1 |  | active: 10 µM |
| O=C(NCCc1ccccc1)c1cccc(Br)n1 |  | inconclusive: 31.6 µM [inhibitor, single point] |

| SMILES | max response, negative = inhibition | Potency |
| --- | --- | --- |
| Cc1cc(C)c2nc(N(Cc3cccnc3)C(=O)Cc3ccccc3)sc2c1 | inactive: -25.8% |  |
| COc1ccc(N2CC(NC(=O)C(=O)c3c(C)[nH]c4ccccc34)CC2=O)cc1 (configuration not stated) | inactive: -0.944% |  |
| COc1cccc(C2CC(c3c(-c4ccccc4)c4cc(Cl)ccc4[nH]c3=O)=NN2S(C)(=O)=O)c1OC (configuration not stated) |  | inconclusive: 20 µM [activator, partial curve] |
| CC1(C)Cc2nc3sc4c(SCC(=O)NCc5ccco5)ncnc4c3cc2CO1 |  | inconclusive: 39.8 µM [activator, single point] |
| COc1ccccc1CNc1nc2nc(C)c(Cl)c(=O)n2[nH]1 | inactive: 0.0032% |  |
| CC1CN(S(=O)(=O)c2cccc(-c3cn4cccnc4n3)c2)CC(C)O1 (configuration not stated) |  | inconclusive: 25.1 µM [activator, partial curve] |
| Cc1ccc(NC(=O)c2ccc(Nc3c([N+](=O)[O-])cc([N+](=O)[O-])cc3[N+](=O)[O-])cc2)cc1 |  | inconclusive: 39.8 µM [inhibitor, single point] |
| COc1ccc(OCC2c3cc(OC)c(OC)cc3CCN2C(=O)c2c(F)cccc2F)cc1 (configuration not stated) |  | inconclusive: 31.6 µM [activator, single point] |
| Cc1ccc(C(=O)NCC(c2ccco2)S(=O)(=O)c2ccc(Cl)cc2)cc1C (configuration not stated) | inactive: -12.9% |  |
| O=C(c1ccc(Cl)c(Cl)c1)c1cc(-c2ccccn2)c(N2CCOCC2)s1 |  | inconclusive: 39.8 µM [activator, single point] |
| Cc1cc(C)nc(/N=C(/NC(=O)Nc2ccc(Cl)c(Cl)c2)Nc2cccc(Cl)c2)n1 |  | active: 7.94 µM |
| COc1cccc(N2CCN(C(=O)C3CCN(S(=O)(=O)c4cn(C)cn4)CC3)CC2)c1 | inactive: 0.224% |  |
| COC(=O)c1c(-c2ccc(C)cc2)csc1NC(=O)c1c(-c2ccccc2)noc1C |  | inconclusive: 31.6 µM [inhibitor, single point] |
| COc1cccc(-c2nc(CS(=O)(=O)CC(=O)NCCc3ccc(Cl)cc3)c(C)o2)c1 |  | inconclusive: 39.8 µM [activator, single point] |
| Cc1ccc(C)c(-n2nnc(C(=O)Nc3ccc(Br)cc3)c2C)c1 | inactive: -7.87% |  |
| COCCn1c(C)cc(O)c(C(c2ccc(OC)cc2)N2CCN(c3ccccc3)CC2)c1=O (configuration not stated) | inactive: 20.9% |  |
| O=C(Nc1cc(Cl)cc(Cl)c1)c1cc(S(=O)(=O)N2CCC3(CC2)OCCO3)ccc1F |  | inconclusive: 31.6 µM [activator, single point] |
| Cc1ccc(Cn2ccc(NC(=O)c3cc(-c4ccc(Br)cc4)on3)n2)cc1 |  | active: 3.98 µM |
| COc1ccc(CCNC(=O)c2cc(=O)[nH]c3ccc(S(=O)(=O)N4CCCCC4C)cc23)cc1OC (configuration not stated) |  | inconclusive: 39.8 µM [activator, single point] |
| O=C(CC1Sc2ccccc2NC1=O)OCc1cc(=O)oc2cc(O)ccc12 (configuration not stated) |  | inconclusive: 31.6 µM [inhibitor, single point] |
| Cc1ccc(Cl)cc1N1CCN(C(=O)c2ccc3c(c2)N(Cc2ccccc2)CCS3)CC1 |  | inconclusive: 7.94 µM [inhibitor, single point] |
